Results from PubChem BioAssay AID757 (NMMLSC, 2007).
Hit rate of the full screen: of about 190,000 compounds, about 520 (0.27%) were called active. Inconclusive means that the source gave no clear call. Such entries were picked first, then a sample of the others.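 How the source made its calls: active means GTP binding activity at least 20 points away from the 100% control level, either lower or higher; inconclusive means compound flagged as likely green fluorescent, judged across all proteins; inactive means the rest.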

target: Ras-related C3 botulinum toxin substrate 1 (Homo sapiens) (UniProt P63000); assay: wildtype Rac1 GTP binding modulators, primary screen, biochemical, GST-Rac1 beads, flow cytometry, multiplex (AID 757); conditions: fluorescent GTP binding, at 10 µM, actives lie on both sides, 0 = cold GTP competed, 100 = untreated

Row | SMILES | GTP binding activity (% of control)
1 | CSc1ccccc1NC(=O)CN(C)CC(=O)Nc1ccccc1C(F)(F)F | inactive: 94%
2 | CCN1/C(=C/C=C/c2oc3ccc4ccccc4c3[n+]2CC)Oc2ccc3ccccc3c21 | inconclusive: 227%
3 | CC(=O)c1cccc(NC(=O)CN(c2ccccc2F)S(C)(=O)=O)c1 | inconclusive: 107%
4 | Cc1ccc(-n2[nH]c(C)c(/C=N/NC(=O)c3ccc([N+](=O)[O-])cc3)c2=O)c(C)c1 | inconclusive: 88%
5 | CC(NC1CCCCC1)C(=O)NN=C(c1ccccc1)c1ccccc1 (configuration not stated) | inactive: 98%
6 | Cc1cc(C(=O)O)ccc1-c1ccc(/C=C2\NC(=O)N(Cc3ccccc3Cl)C2=O)o1 | inconclusive: 88%
7 | Cc1sc2nc(CSCC(=O)N(CCC#N)c3ccccc3)[nH]c(=O)c2c1C | inactive: 102%
8 | O=C(Cc1ccccc1)Nc1cccc(N2C(=O)C=CC2=O)c1 | inactive: 106%
9 | Cc1ccc(S(=O)(=O)N(C)CC(=O)OCC(=O)c2c(N)n(C)c(=O)n(C)c2=O)cc1 | inactive: 99%
10 | COc1ccc(CCNC(=O)c2ccccc2Cl)cc1OC | inconclusive: 97%
11 | CCOC(=O)N1CCC(N2C(=O)c3ccccc3C2Nc2ccc(S(=O)(=O)N3CCOCC3)cc2)CC1 (configuration not stated) | inactive: 101%
12 | O=C(CCCOc1ccccc1)Nc1ccc(S(=O)(=O)Nc2ccccn2)cc1 | inactive: 96%
13 | COc1ccc(OC)c2c(N3CCN(C)CC3)cc(C(F)(F)F)nc12 | inconclusive: 107%
14 | CC(C)(C)OC(=O)NCCCC[C@H](NC(=O)c1nc[nH]c1C(=O)N1CCN(C(=O)OC(C)(C)C)CC1)C(=O)OC(C)(C)C | inconclusive: 97%
15 | COc1ccccc1-c1noc(CSc2nc(C)cc(=O)[nH]2)n1 | inactive: 93%
16 | CCc1ccccc1NC(=O)c1onc(C)c1Cl | inconclusive: 105%
17 | C/C(=C\C(=O)c1ccc(Cl)cc1Cl)N(C)C | inactive: 101%
18 | c1cncc(CN=C2Nc3ccccc3CS2)c1 | inconclusive: 93%
19 | CCOc1ccc(NC(=O)CSc2nc3cccnc3n2CCOC)cc1 | inconclusive: 106%
20 | CC(C)CCn1c(CN2CCN(Cc3ccccc3)CC2)nc2c1c(=O)n(C)c(=O)n2C | active: 159% [activator]
21 | CCC(=O)NC1CCN(C(=S)NC)CC1 | inactive: 99%
22 | Cn1nc(-c2ccccc2)c(-c2nc(-c3cccc(C(F)(F)F)c3)no2)c1Cl | inconclusive: 98%
23 | Cc1cc(C)c2c(c1)SC1=NC(c3ccccc3)(C(F)(F)F)NC(=O)N12 (configuration not stated) | inactive: 103%

Row | SMILES | GTP binding activity (% of control)
24 | Cc1ccc(C2CC(c3ccco3)=NN2S(C)(=O)=O)cc1 (configuration not stated) | inconclusive: 105%
25 | Cc1ccc(CNC(=O)/C=C/c2ccc(S(=O)(=O)N3CCOCC3)cc2)cc1 | inactive: 103%
26 | O=C(NC1CCCCC1)c1cc([N+](=O)[O-])[nH]n1 | active: 127% [activator]
27 | COc1cccc2cc(C(C)=O)c(=O)oc12 | inconclusive: 112%
28 | COc1ccc(Cc2nnc(N/N=C/c3ccc(C)o3)[nH]c2=O)cc1 | inconclusive: 98%
29 | Nc1nn2c(-c3ccccc3)cc(=O)[nH]c2c1N=Nc1ccc(Br)cc1 | active: 76%
30 | NNC(=O)CN1C(c2ccc(Cl)cc2)=Nc2ccc(Br)cc2C1c1ccccc1 (configuration not stated) | inconclusive: 100%
31 | COc1ccccc1CNC(=O)c1c(N)n(CCCN2CCOCC2)c2nc3ccccc3nc12 | active: 78%
32 | COc1ccccc1C(=O)Nc1ccc(OCc2nnc3c4ccccc4c(C)nn23)cc1 | inconclusive: 90%
33 | CCCC(=O)NCc1nc2ccccc2n1C | inconclusive: 90%
34 | FC(F)Sc1ccc(NC(=S)NC(c2ccccc2)c2ccccc2)cc1 | inconclusive: 93%
35 | O=[N+]([O-])c1ccc(NCCCNS(=O)(=O)c2ccccc2)cc1 | inactive: 102%
36 | COC(=O)CCCCC1SCC(NC(=O)OC)C1NC(=O)OC (configuration not stated) | inconclusive: 109%
37 | Nc1nnn(Cc2ccccc2)n1 | inconclusive: 106%
38 | O=C(Nc1cccc(-c2nnc(-c3ccco3)o2)c1)c1ccccc1 | active: 76%
39 | O=C(Nc1cccc2ccccc12)c1cnccn1 | inactive: 90%
40 | C/C=C/c1ccccc1OCc1ccc(C(=O)O)o1 | active: 194% [activator]
41 | O=C(CCCN1C(=O)/C(=C/c2ccccc2)SC1=S)Nc1ccccc1O | inconclusive: 90%
42 | CC(C)C(=O)Nc1cccc(C(=O)Nc2cc([N+](=O)[O-])ccc2F)c1 | inactive: 98%
43 | COC(=O)C1=C(C)NC(=O)/C1=C/c1ccc(CNS(=O)(=O)c2ccc(C)cc2)o1 | inactive: 100%
44 | Nc1nc(N2CCN(c3ccc(F)cc3)CC2)n[nH]1 | inactive: 101%
45 | COc1cccc2sc(Nc3nc(-c4ccccn4)cs3)nc12 | active: 79%
46 | COC(=O)c1ccc(COc2ccc(/C=C(\C#N)c3nc4ccccc4[nH]3)cc2OC)o1 | inactive: 102%

Row | SMILES | GTP binding activity (% of control)
47 | Cc1cc(C)cc(N=Cc2[nH]c3ccc(Br)c(Cl)c3c2O)c1 | inconclusive: 160%
48 | C/C=C/c1ccc(OCC(=O)Nc2ccc(C(N)=O)cc2)c(OC)c1 | inconclusive: 91%
49 | O=C1OC(/C(=C\Nc2cc(Cl)ccc2O)[N+](=O)[O-])c2ccccc21 (configuration not stated) | inconclusive: 90%
50 | Cc1cccc(C2=NNC(=O)C(c3ccc(Cl)cc3)C2)c1 (configuration not stated) | inconclusive: 91%
51 | COc1cc(NC(=O)c2ccc(C(C)(C)C)cc2)c(OC)cc1NC(=O)CN1CCCCC1 | inactive: 101%
52 | Cn1c(=O)c2ncn(CC(=O)N=Nc3c(O)[nH]c4ccccc34)c2n(C)c1=O | inconclusive: 90%
53 | Cc1[nH]n2c(=O)c3c(nc2c1-c1ccc(F)cc1)CCCC3 | inactive: 81%
54 | COc1ccc(CNC2CCCCC2)cc1 | inconclusive: 108%
55 | CCOC(=O)C1(Cc2ccc(OC)cc2)CCN(C(=O)c2cc3ccccc3[nH]2)CC1 | inconclusive: 93%
56 | CC(C)NC(=O)c1ccccc1NC(=O)Cc1ccc(Br)cc1 | inactive: 99%
57 | O=C(CSc1ncnc2c1oc1ccccc12)Nc1ccc2c(c1)OCCO2 | inconclusive: 96%
58 | COC(=O)C1=C(N)Oc2cc(C)n(Cc3cccnc3)c(=O)c2C1c1ccc(OC)c(OC)c1 (configuration not stated) | inconclusive: 101%
59 | Cc1ccc(S(=O)(=O)N2CCC(C(=O)Nc3nnc(C45CC6CC(CC(C6)C4)C5)s3)CC2)cc1 | inconclusive: 105%
60 | COc1cccc(CN(C(=O)Cn2nnc(-c3ccccc3F)n2)C(C(=O)NC(C)(C)C)c2ccncc2)c1 (configuration not stated) | inactive: 98%
61 | COc1ccc(NC(=O)c2cc3c(-c4ccc(OC)c(OC)c4)nn(C)c3s2)cc1OC | inconclusive: 90%
62 | O=c1c2ccccc2nc2c3ccccc3c3nncn3n12 | inconclusive: 85%
63 | COc1ccc(OC)c(C2=Nn3c(nnc3-c3ccco3)SC2)c1 | inconclusive: 94%
64 | COc1ccc(C)cc1NC(=O)c1cc2cc3ccc(C)cc3nc2o1 | inactive: 102%
65 | CCOC(=O)c1c(-c2cccs2)csc1NC(=O)c1ccncc1 | inconclusive: 106%
66 | Cc1ccc(N2CCN(C(=O)N3CCOCC3)CC2)c(C)c1 | inconclusive: 89%
67 | O=C(Oc1ccc2c(c1)OCO2)c1ccc(Br)c(S(=O)(=O)N2CCOCC2)c1 | inconclusive: 89%
68 | CCOc1ccccc1OCCCOc1ccc(C)cc1Cl | inconclusive: 92%
69 | Nc1nc(SCc2ccc(Cl)c(Cl)c2)n[nH]1 | inconclusive: 101%

Row | SMILES | GTP binding activity (% of control)
70 | Cc1ccc(SC(CC(=O)c2ccc(C(C)(C)C)cc2)C(=O)O)cc1 (configuration not stated) | active: 79%
71 | COc1ccccc1/C=C/C(=O)NNC(=O)c1cccs1 | inactive: 95%
72 | O=C(NNc1nc2c(F)cccc2s1)c1cc(=O)c2ccccc2o1 | inactive: 84%
73 | COCCNC(=S)N/N=C(\C)c1cccc(OC)c1 | inactive: 98%
74 | COCCNC(=S)NNC(=O)c1ccc(-n2cnnn2)cc1 | inactive: 104%
75 | CCOC(=O)c1c(-c2ccc(C)cc2)csc1NC(=O)/C(C#N)=C/c1ccc(O)c(OC)c1 | inconclusive: 116%
76 | CC1CCN(S(=O)(=O)c2ccc(C(=O)NNC(=O)C3CC3)cc2)CC1 | inactive: 96%
77 | O=C(/C=C/c1ccco1)Nc1ccc(-c2nc3ccccc3[nH]2)cc1 | inconclusive: 148%
78 | O=C(Nc1ccccc1N1CCCC1)c1ccc([N+](=O)[O-])cc1Cl | inactive: 94%
79 | COc1ccc2nc(C)cc(SCC(=O)N/N=C/c3ccc(O)c(O)c3)c2c1 | active: 79%
80 | O=C(CSc1ncn[nH]1)N1CCOCC1 | inactive: 96%
81 | CC(=O)Nc1ccc(-c2ccc3nnc(C)n3n2)cc1 | inactive: 90%
82 | CCOc1ccc(N2CC(C(=O)Nc3ccc4c(c3)OCO4)CC2=O)cc1 (configuration not stated) | inconclusive: 100%
83 | O=[N+]([O-])c1cccc(Nc2nc(Cl)nc(Cl)n2)c1 | inconclusive: 87%
84 | CC(C)C12CN3CC(C(C)C)(CN(C1)C3c1ccco1)C2=O (configuration not stated) | inconclusive: 116%
85 | O=C(c1cc[n+]([O-])cc1)N1CCc2c([nH]c3ccccc23)C1c1ccccc1Cl (configuration not stated) | inconclusive: 97%
86 | COCCNC(=O)Cn1c(=O)n(Cc2ccco2)c(=O)c2ccccc21 | inconclusive: 106%
87 | CC(C)CCNC(=O)CCCOc1cc(=O)n(C)c2ccccc12 | inconclusive: 95%
88 | O=C(CCn1nc(-c2ccc(Cl)cc2)ccc1=O)N1CCN(c2ccccn2)CC1 | inconclusive: 106%
89 | Nc1nc(SCC(=O)c2cc(F)ccc2F)n[nH]1 | inconclusive: 94%
90 | C/C(=N\NC(=O)c1cccc(Cl)c1)C1C(=O)c2ccccc2C1=O | inactive: 93%
91 | Cc1ccc(Oc2nc(-c3cccnc3)nc3ccccc23)c([N+](=O)[O-])n1 | inconclusive: 89%
92 | O=C(O)c1ccccc1C(=O)OCc1ccccc1 | active: 160% [activator]
